Measurements as given in PubChem BioAssay AID1645887 (National Center for Advancing Translational Sciences (NCATS), 2021).
Several values for one entry are separate records, joined by “and”; a condition that tells them apart may be missing. Identical values can stand only once. The campaign covered roughly 16,000 compounds. About 40 (0.2%) were called active. About 1% were inconclusive and are not listed. Calls come from the whole dose curve; as a rule, active = well fitted activation curve with a large enough effect; inconclusive = small, poorly fitted or top-dose-only effect, or another doubt; inactive = no such curve, though single readings can be large or run the other way. Some of the results follow.

Target: Rap guanine nucleotide exchange factor 4 (Homo sapiens) (UniProt Q8WZA2)
Sequence of UniProt Q8WZA2 (Q8WZA2 whole entry, looked up): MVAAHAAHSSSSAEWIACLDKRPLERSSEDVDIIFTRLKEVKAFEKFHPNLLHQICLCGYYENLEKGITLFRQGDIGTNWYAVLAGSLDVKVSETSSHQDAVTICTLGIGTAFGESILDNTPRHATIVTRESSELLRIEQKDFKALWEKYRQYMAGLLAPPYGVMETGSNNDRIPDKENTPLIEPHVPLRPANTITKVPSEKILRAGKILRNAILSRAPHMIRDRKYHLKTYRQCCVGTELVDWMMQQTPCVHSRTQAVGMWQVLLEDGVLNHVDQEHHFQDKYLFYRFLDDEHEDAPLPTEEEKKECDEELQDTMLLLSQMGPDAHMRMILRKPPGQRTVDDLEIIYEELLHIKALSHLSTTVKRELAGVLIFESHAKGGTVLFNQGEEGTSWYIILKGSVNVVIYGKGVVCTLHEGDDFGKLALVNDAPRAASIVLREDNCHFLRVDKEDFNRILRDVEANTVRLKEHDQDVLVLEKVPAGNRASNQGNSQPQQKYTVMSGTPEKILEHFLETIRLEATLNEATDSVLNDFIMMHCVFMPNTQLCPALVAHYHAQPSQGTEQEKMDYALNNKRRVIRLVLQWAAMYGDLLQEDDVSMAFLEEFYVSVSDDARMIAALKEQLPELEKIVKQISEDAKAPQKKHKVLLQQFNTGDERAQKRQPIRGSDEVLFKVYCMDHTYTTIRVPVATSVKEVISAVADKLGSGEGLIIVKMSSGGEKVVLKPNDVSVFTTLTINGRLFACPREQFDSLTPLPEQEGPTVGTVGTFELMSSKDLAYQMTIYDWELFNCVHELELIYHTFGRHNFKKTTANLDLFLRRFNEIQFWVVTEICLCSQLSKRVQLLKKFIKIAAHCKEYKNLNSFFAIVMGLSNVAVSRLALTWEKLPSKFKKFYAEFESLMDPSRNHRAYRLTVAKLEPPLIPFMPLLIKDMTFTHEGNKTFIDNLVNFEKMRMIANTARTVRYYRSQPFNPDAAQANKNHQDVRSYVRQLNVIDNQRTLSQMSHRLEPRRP
Assay: Validation qHTS for agonist of cAMP-regulated guanine nucleotide exchange factor 4 (EPAC2);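 note: exchange makes BODIPY-GDP fluorescence drop when released from Rap1B; series mostly up to about 150 µM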
Conditions: EPAC2 Rap1B BODIPY-GDP exchange, fluorescence; activation: hits give high values
Outline: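 Signal normalized against 6.5 mM cAMP as agonist control. Mix of EPAC2 (100 nM), RAP1B-BODIPY-GDP (250 nM) and GDP (50 uM) was read kinetically at 480/540 nm, every 5 min over 30 min, after 5 min room-temperature incubation with compound.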
% is set by controls: 0 for no effect and ±100 for the full control effect.

activation, inactive:
C[C@@H]1CC[C@H]2[C@H](C)[C@H]3CC[C@H]4C5[C@@H](O)CC6=CC(=O)CC[C@]6(C)[C@H]5C[C@H]4C3C(=O)N2C1 (some centres undefined) -6.48%
Cn1cnc2c(F)c(Nc3ccc(Br)cc3Cl)c(C(=O)NOCCO)cc21 -16%
CCOC(=O)C[C@H]1c2cc(F)ccc2S(=O)(=O)N1C1CCCCC1 -12%
CC(C)Oc1ccc(C(=O)NCC2Cc3cc(F)cc(-c4cnccn4)c3O2)cc1 (centres undefined) -24.6%
CCN1CCN(C(=O)c2cc(NC(=O)COC)cc3nc(-c4ccncc4)n(C)c23)CC1 -20.5%
O=C1OC(C(O)CO)C(O)=C1O (centres undefined) -6.31%
COc1ccccc1-c1nccc(-n2ccnc2)n1 -17.9%
CN(Cc1cc(Br)cc(Br)c1N)C1CCCCC1 -8.49%
CCN(CC)C1CCN(C(=O)c2cnn(-c3nccc(-c4ccco4)n3)c2C(C)C)C1 (centres undefined) 2.52%
COc1ccccc1-c1nc(N2CCOCC2)c2ccccc2n1 7.99%
OC[C@H]1OC([S-])[C@H](O)[C@@H](O)[C@@H]1O.[Au+] (some centres undefined) -8.77%
COc1ccc2c(=O)cc(-c3ccc(O)cc3)oc2c1 -3.27%
C[C@H](Cc1ccc(O)c(O)c1)[C@@H](C)Cc1ccc(O)c(O)c1 -20.7% and -78.2%
O=C(c1cccc(Cl)c1)N1CCCC(Cn2cc(C(=O)N3CCCC3)nn2)C1 (centres undefined) 3.75%
CCn1c(-c2ccccc2F)nc2cc(C(=O)NC(c3ccccn3)C(F)(F)F)cc(NC(C)=O)c21 (centres undefined) -11.2%
NCCc1ccc(O)c(O)c1 -10.5% [middle of 4 runs]
CC(=O)N1CCC[C@@]2(CCN(C(=O)Nc3cccc(C#N)c3)C2)C1 -19.1%
O=C(Nc1ccccc1)N1CCCC2(CCN(C(=O)c3cnccn3)CC2)C1 13.1%
c1ccc(CNc2ncncc2-c2ccoc2)cc1 -7.31%
CCCCCC=CCC=CCCCCCCCC(=O)OCC -22.6%
CC(=O)NCCNc1ncnc2ccc(-c3c(C)noc3C)cc12 -13.6%
NC(N)=NC(N)=Nc1ccccc1 -10.6% [middle of 4 runs]
O=c1c(-c2ccccc2)nc2cnc(N3CCOCC3)nc2n1Cc1cccs1 -14.4%
Cc1c(Nc2ncccc2C(=O)O)cccc1C(F)(F)F -1% and -15%
CC[C@H](c1ccc(O)cc1)[C@@H](CC)c1ccc(O)cc1 -12.6%
O=C(Cc1ccccc1)NO -7.82%
CN(Cc1ccon1)C(=O)c1cnn(-c2nccc(-c3ccc4c(c3)OCO4)n2)c1C1CC1 -2.7%
CCN(Cc1ccncc1)Cc1ccc2c(c1)CN(C(=O)c1ccc(OC)cc1)CCO2 2.51%
CCCCC(=O)O[C@]1(C(=O)CO)[C@H](C)C[C@H]2[C@@H]3CCC4=CC(=O)C=C[C@]4(C)[C@@]3(F)[C@@H](O)C[C@@]21C -20.2%
O=C(C[n+]1cccc(Br)c1)c1ccc(Br)cc1 -1.71%
COc1cc(N)c(Cl)cc1C(=O)OCCN1CCCCC1 -24.5%
COc1cccc(Cn2c(=O)c(-c3cccc(C#N)c3)nc3cnc(N4CCN(C)CC4)nc32)c1 -15.4%
Cc1cc(C)nc(-c2cccc3c2OC(CNC(=O)C2CCOC2)C3)n1 (centres undefined) -3.15%
CCCCC(=O)OCC(=O)[C@H]1[C@H](C)C[C@H]2[C@@H]3C[C@H](F)C4=CC(=O)C=C[C@]4(C)[C@@]3(F)[C@@H](O)C[C@@]21C -23.2%
Cc1ccn(CCC(=O)N2CCOc3ccc(C(O)C4CCCCC4)cc3C2)n1 (centres undefined) -23.3%
CC1c2cccc(O)c2C(O)=C2C(=O)[C@]3(O)C(O)=C(C(N)=O)C(=O)C(N(C)C)C3C(O)C21 (some centres undefined) -3.42%
C[C@@H]1CCN=C(N)S1 -0.438%
COc1cccc(-c2cncnc2NCc2ccccc2OC)c1 -8.46%
COCCn1c(=O)c(-c2ccccc2)nc2cnc(Nc3cccc(OC)c3)nc21 -9.54%
O=c1c(O)cc(C2Oc3cc(O)cc(O)c3CC2O)cc2c(C3Oc4cc(O)cc(O)c4CC3O)cc(O)c(O)c12 (centres undefined) -12.4%
CO[C@H]1[C@H](NC(=O)c2cccc(F)c2)c2ccccc2C12CCN(Cc1ccco1)CC2 -6.27%
CC(Oc1ccccc1)C(=O)N[C@@H]1C(=O)N2C(C(=O)OCC3CCCCC3)C(C)(C)S[C@H]12 (some centres undefined) -9.87%
CCCCCC(O)CCCC(=O)O (centres undefined) 1.86% and -5.89% and -24.8%
CCCCCc1c2c(cc(O)c1C(=O)O)OC(=O)c1cc(C(=O)CCCC)c(OC)cc1O2 -4.3%
O=C(c1cnccn1)N1CCC[C@@]2(CCN(C(c3ccccc3)c3ccccc3)C2)C1 -13.3%
N#Cc1cccc(NC(=O)N2CC[C@@]3(CCCN(C(=O)c4cccc(F)c4)C3)C2)c1 -5.37%
NC(=Nc1ccccc1)Nc1ccccc1 9.38% and -24.3%
CCCN(CC1CC1)c1nc(C)nc(Nc2c(Cl)cc(Cl)cc2Cl)c1Cl 0.128% and 4.79%
O=C(NCCc1nnc2n1CCN(Cc1ccc(F)c(F)c1)CC2)c1ccoc1 -3.36%
Nc1nc(Cl)c2ncn(C3OC(CO)C(O)C3O)c2n1 (centres undefined) -6.05%
O=S(=O)(c1ccccc1)N1CCC2(CCN(c3ccncc3)CC2)CC1 -10%
COc1ccccc1-c1ccnc(-n2ncc(C(=O)NCCCN3CCOCC3)c2C)n1 -10.4%
Cc1ccccc1C(=O)NC(C)c1nnc2n1CCN(Cc1ccc(F)cc1)CC2 (centres undefined) -2.09%
CC(=O)Nc1cc(C(=O)N2CCN(C(=O)c3ccco3)CC2)cc2ncn(CCc3ccccn3)c12 -21.2%
Cc1nc2ccccc2nc1CN1CCOc2ccc(C(C)(O)COc3ccccc3)cc2C1 (centres undefined) -0.995%
O=c1c(CCc2ccccc2)nc2cnc(N3CCNCC3)nc2n1CCc1ccccc1 -26.6%
COc1ccccc1-c1nccc(NCc2cccs2)n1 -23.3%
O=c1c(-c2ccccc2)nc2cncnc2n1-c1ccccc1 -3.26%
CS(=O)(=O)N1CCC[C@@]2(CCN(Cc3ccccc3)C2)C1 -15.1%
C1CCN2CC3CC(CN4CCCC[C@@H]34)C2C1 (some centres undefined) 4.55%
COCc1c(C(=O)NC2CCCC2)cnn1-c1nccc(-c2ccco2)n1 -11.3%
Cc1ccc(C(=O)N(Cc2cc3cccc(C)c3nc2N(C)C)CC2CCCO2)cc1 (centres undefined) -0.224%
COc1cc(C)c(CN2CCc3nnc(C(C)NC(=O)c4cc(F)ccc4F)n3CC2)cc1C (centres undefined) -2.72%
C[C@]12CCC(=O)C=C1CC[C@@H]1[C@@H]2[C@@H](O)C[C@@]2(C)[C@H]1CC[C@]2(O)C(=O)COP(=O)(O)O -8.98%
Cc1c([N+](=O)[O-])cnc2ccccc12 -13.5%
COC(=O)c1cccc(C(=O)N2CCc3c(cnc(C)c3CNC(=O)c3ccsc3)C2)c1 -21.7%
O=C1NC(c2cccc([N+](=O)[O-])c2)=CCN1c1ccccc1O -3.14% and 6.56%
CC(=O)OCC(=O)[C@@]1(O)CC[C@H]2[C@@H]3CCC4=CC(=O)C=C[C@]4(C)[C@H]3[C@@H](O)C[C@@]21C -5.28%
CN(C)c1ncnc2ccc(-c3cccnc3)cc12 -9.13%
O=C(Nc1cccc(C2=NCCN2)c1)Nc1cccc(C2=NCCN2)c1 3.56%
CCCOC(=O)c1ccc(N)cc1 -0.719%
Nc1ncnc2c1ncn2C1CCCC1 -15.2%
O=C(c1noc2c1CCCC2)N1CCOc2ccc(CN3CCN(c4ccccn4)CC3)cc2C1 -7.56%
CC(=O)c1ccc(-c2cc(F)cc3c2OC(CNC(=O)c2ccc[n+]([O-])c2)C3)s1 (centres undefined) 4.06%
CCC1CN(CCNC(=O)c2ccnc(Cl)c2)Cc2cc(OC)ccc2O1 (centres undefined) -14.6%
C[C@@H]1CN(Cc2ccc3c(c2)CN(C(=O)CN2CCOc4ccccc4C2)CCO3)C[C@H](C)O1 -1.21%
O[N+]1=CC=CCC1=S.On1ccccc1=S.[Zn] 13.1%
CC1(C)CC2C1CCC1(C)OC1CCC2(C)O (centres undefined) -8.56%
COc1cc(=O)n2c(c1C(=O)N(C)Cc1cscn1)CCN(C(=O)c1ccc(C)c(C)c1)CC2 -54.1%
Cc1[nH]c(C)c(Cl)c(=O)c1Cl -12.1%
CN1CCC2(CC1)CCN(C(=O)c1cc(C(F)(F)F)cc(C(F)(F)F)c1)CC2 6.87%
CNCC(=O)N[C@@H](CCCN=C(N)N)C(=O)N[C@H](C(=O)N[C@@H](Cc1ccc(O)cc1)C(=O)N[C@H](C(=O)N[C@@H](Cc1cnc[nH]1)C(=O)N1CCC[C@H]1C(=O)N[C@@H](C)C(=O)O)C(C)C)C(C)C 3.59%
CC(C)CN1CC[C@@]2(CCCN(C(=O)c3ccco3)C2)C1 -13.2%
CC1=CCc2c(cc3oc(C)cc(=O)c3c2O)OC1 -2.38%
